Some of the results follow. Further columns of the screen follow, without active or inactive calls.
Legend:
Assay in all cases: Primary Screen for Target Class Profiling of Small Molecule Inhibitors of Methyltransferases
[1] = molecular target: Glycine N-methyltransferase (Homo sapiens) (UniProt Q14749); settings: purified enzyme, MTase-Glo SAH luminescence; measured here: GNMT inhibition; at 40 µM; stronger effect = lower value
How it was run: (§1)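 Each enzyme was reacted with SAM and its substrate, with compounds tested once at 40 uM; SAH formed was read by MTase-Glo luminescence.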

[2] = molecular target: Guanidinoacetate N-methyltransferase (Homo sapiens) (UniProt Q14353); settings: purified enzyme, MTase-Glo SAH luminescence; measured here: GAMT inhibition; at 40 µM; stronger effect = lower value
How it was run: as §1

[3] = molecular target: Histamine N-methyltransferase (Homo sapiens) (UniProt P50135); settings: purified enzyme, MTase-Glo SAH luminescence; measured here: HNMT inhibition; at 40 µM; stronger effect = lower value
How it was run: as §1

[4] = molecular target: Nicotinamide N-methyltransferase (Homo sapiens) (UniProt P40261); settings: purified enzyme, MTase-Glo SAH luminescence; measured here: NNMT inhibition; at 40 µM; stronger effect = lower value
How it was run: as §1

[5] = molecular target: Phenylethanolamine N-methyltransferase (Homo sapiens) (UniProt P11086); settings: purified enzyme, MTase-Glo SAH luminescence; measured here: PNMT inhibition; at 40 µM; stronger effect = lower value
How it was run: as §1
% is set by controls: 0 for no effect and ±100 for the full control effect.

COC(=O)[C@H](NC(=O)c1cc(-c2ccccc2)nc2ccccc12)c1ccccc1
activity change, negative = inhibition [1]: -3.53% | activity change, negative = inhibition [2]: 3.33% | activity change, negative = inhibition [3]: -0.342% | activity change, negative = inhibition [4]: -7.61% | activity change, negative = inhibition [5]: 3.6%

C=C1C(=O)O[C@@H]2/C=C(\CO)CC/C=C(/C=O)C[C@@H](O)[C@@H]12
activity change, negative = inhibition [1]: -7.65% | activity change, negative = inhibition [2]: -8.54% | activity change, negative = inhibition [3]: 1.58% | activity change, negative = inhibition [4]: -15.4% | activity change, negative = inhibition [5]: 0.173%

COC(=O)c1ncn2c1C(=O)N(CC(C)c1ccccc1)C(C)(C(=O)NC1CCCCCC1)C2 (stereo not drawn)
activity change, negative = inhibition [1]: 7.7% | activity change, negative = inhibition [2]: 2.98% | activity change, negative = inhibition [3]: -4.1% | activity change, negative = inhibition [4]: 8.96% | activity change, negative = inhibition [5]: 7.74%

Cc1ccc(CNC(=O)C2(C)Cn3nc(C(=O)NCCN4CCCCC4)cc3C(=O)N2C)cc1 (stereo not drawn)
activity change, negative = inhibition [1]: 4.33% | activity change, negative = inhibition [2]: 0% | activity change, negative = inhibition [3]: 2.85% | activity change, negative = inhibition [4]: 0.736% | activity change, negative = inhibition [5]: 2.15%

COc1ccnc(CCc2nc3ncccc3[nH]2)c1
activity change, negative = inhibition [1]: -2.24% | activity change, negative = inhibition [2]: -1.04% | activity change, negative = inhibition [3]: 8.77% | activity change, negative = inhibition [4]: -16% | activity change, negative = inhibition [5]: 2.15%

CN(C)C(N)=NCCC[C@H](N)C(=O)O
activity change, negative = inhibition [1]: -3.07% | activity change, negative = inhibition [2]: 7.83% | activity change, negative = inhibition [3]: -0.719% | activity change, negative = inhibition [4]: -1.84% | activity change, negative = inhibition [5]: 8.02%

N#Cc1cc2nc(O)c(O)nc2cc1[N+](=O)[O-]
activity change, negative = inhibition [1]: -9.85% | activity change, negative = inhibition [2]: 4.28% | activity change, negative = inhibition [3]: -0.555% | activity change, negative = inhibition [4]: -6.3% | activity change, negative = inhibition [5]: 4.26%

C[C@@H](CN1CCC(Cc2ccccc2)CC1)[C@@H](O)c1ccc(O)cc1
activity change, negative = inhibition [1]: 4.45% | activity change, negative = inhibition [2]: 7.73% | activity change, negative = inhibition [3]: 3.4% | activity change, negative = inhibition [4]: -6.83% | activity change, negative = inhibition [5]: 3.4%

CC(C)(O)CNc1ncc(-c2ccnc(Nc3ccnc(Cl)c3)n2)c(CC2CC2)n1
activity change, negative = inhibition [2]: -7.27% | activity change, negative = inhibition [4]: -47.8% | activity change, negative = inhibition [5]: -24.4%

Cc1cc(C[C@@H]2COC[C@@H]2NC(=O)c2ccc(Oc3ccccc3)o2)on1
activity change, negative = inhibition [1]: -5.52% | activity change, negative = inhibition [2]: -9.04% | activity change, negative = inhibition [3]: -2.19% | activity change, negative = inhibition [4]: -8.6% | activity change, negative = inhibition [5]: -3.75%

Reference: PubChem BioAssay AID1745853 (National Center for Advancing Translational Sciences (NCATS), 2022)
